The record followed here is PubChem BioAssay (NCATS).

Some of the results follow. These are further read-outs of the screen, such as a control signal, another cell line or another target. No call is given for them. The note in brackets gives the kind of curve behind each potency; many fits are weak.
Tags give direction and shape of the fitted curve.

The first experiment is described as follows: qHTS drug screen for cell cycle checkpoint inhibitors in PARPi-resistant BRCA-mutant ovarian cancer cell lines. (AID 1963452). The following applies: PEO1/OlaR viability, CellTiter-Glo luminescence, 96 h; measured here: PEO1 parental viability. The essentials: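 PEO1, PEO4 and PEO1/OlaR ovarian cancer cells, 600 per well, exposed 96 h at 37C to a dilution series. Viability read by CellTiter-Glo luminescence, normalized to DMSO and empty wells; activity summarized as Z-AUC.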
As a reminder, the AC50 is the midpoint of the concentration-response curve, whichever way the signal moves. As to `CCN(c1cc(C#CCN2CCOCC2)cc(C(=O)NCc2c(C)cc(C)[nH]c2=O)c1C)C1CCC(N(C)CCOC)CC1` (stereo not given), the AC50 was 0.0549 µM [rising, full curve, poor fit].

As to `C=C1C(=O)OC(CCCCCCCC)C1C(=O)O` (stereo not given), the AC50 is 27.5 µM [falling, partial curve, poor fit].

Regarding `COc1ccc(Cc2ccc(NC(N)=O)cc2)cc1-c1cccc(Cl)c1`, the AC50 is 17.4 µM [falling, single point].

As for `Cc1ccsc1C(=CCCN1CCC[C@@H](C(=O)O)C1)c1sccc1C`, the AC50 is 27.5 µM [falling, partial curve, poor fit].

For the molecule `OC(CCN1CCCCC1)(c1ccccc1)C1CC2C=CC1C2` (stereo not given), the concentration at half-maximal activity (AC50) is 7.76 µM [rising, partial curve].

As for `C=C1c2cccc(O)c2C(O)=C2C(=O)[C@@]3(O)C(O)=C(C(N)=O)C(=O)[C@@H](N(C)C)[C@@H]3[C@@H](O)[C@H]12`, the AC50 was 24.5 µM [falling, single point].

For the molecule `FC(F)(F)c1ccc(CNc2ccc(Cc3c[nH]c4ncc(Cl)cc34)cn2)cn1`, the concentration at half-maximal activity (AC50) is 27.5 µM [falling, single point].

For `COc1nc(-c2ccc3c(c2)OCO3)n(-c2ccc(NC(=O)CSc3ccccc3)cc2)n1`, the AC50 is 15.5 µM [falling, partial curve, poor fit].

Regarding `O=C(O)CCCCN(CCc1ccccc1OCc1ccc(CCc2ccccc2)cc1)Cc1ccc(C(=O)O)cc1`, the AC50 was 21.9 µM [falling, single point].

As for `C=C[C@@H]1CN2CCC1C[C@H]2[C@H](O)c1ccnc2ccc(OC)cc12` (stereo not given in full), the AC50 was 13.8 µM [falling, partial curve, poor fit].

Turning to `Cc1cc(O)cc2c1[C@]1(C)CC[C@H]3C(C)(C)CCC[C@]3(C)[C@H]1C2`, the AC50 is 0.0004 µM [rising, full curve].

Turning to `COCCCOc1ccnc(CS(=O)c2nc3ccccc3[nH]2)c1C` (stereo not given), the AC50 was 6.92 µM [falling, partial curve, poor fit].

With `NS(=O)(=O)Oc1ccc2c3c(c(=O)oc2c1)CCCCC3`, the AC50 was 19.5 µM [falling, single point].

As for `NC(=O)c1ccc2[nH]ccc2c1`, the AC50 was 27.5 µM [rising, single point].

Regarding `Cc1[nH]c(/C=C2\C(=O)Nc3ccc(F)cc32)c(C)c1C(=O)NC[C@H](O)CN1CCOCC1`, the AC50 is 13.8 µM [falling, partial curve].

As to `NS(=O)(=O)c1cc(Cl)c(Cl)c(S(N)(=O)=O)c1`, the AC50 is 3.89 µM [rising, full curve, poor fit].

Consider `[2H]C([2H])(Nc1nc(-c2ccccc2C([2H])(C([2H])([2H])[2H])C([2H])([2H])[2H])ncc1C)c1ccc(-n2ccnn2)cc1`, for which the AC50 is 21.9 µM [falling, single point].

As to `Cc1ccc(NC(=O)NCc2ccc3c(c2)CN(C2CCC(=O)NC2=O)C3=O)cc1Cl` (stereo not given), the AC50 was 0.0309 µM [falling, full curve].

Consider `O=C(Nc1cnccc1Cl)N1CCN(Cc2ccc3c(c2)OC(F)(F)O3)CC1`, for which the AC50 is 19.5 µM [falling, partial curve].

Regarding `CONC(=O)Nc1ccc(-c2sc3c(c2CN(C)Cc2ccccc2)c(=O)n(-c2ccccc2)c(=O)n3Cc2c(F)cccc2F)cc1`, the AC50 is 13.8 µM [falling, partial curve, poor fit].

Turning to `Cn1c(NC[C@@H](N)Cc2ccccc2)nc(-c2ccncc2)c(-c2ccc3ccccc3c2)c1=O`, the AC50 was 17.4 µM [falling, partial curve, poor fit].

On to `CCN(CC)CCCC(C)Nc1nc(C)cc(Nc2ccc3nc(C)cc(N)c3c2)n1` (stereo not given), for which the AC50 was 5.49 µM [rising, partial curve, poor fit].

Consider `COc1cc2ncnc(Nc3ccc(O)c(Br)c3)c2cc1OC`, for which the AC50 was 13.8 µM [falling, partial curve, poor fit].

For the molecule `CN1C(=O)C(Cc2c[nH]c3ccccc23)NC1=S` (stereo not given), the AC50 is 0.138 µM [rising, full curve, poor fit].

Still in this experiment, the particulars now being: PEO1/OlaR viability, CellTiter-Glo luminescence, 96 h; measured here: PEO4 viability.
Regarding `Nc1nccc(-c2c(-c3ccc(F)cc3)ncn2C2CCN(Cc3ccon3)CC2)n1`, the half-maximal activity concentration (AC50) was 12.3 µM [falling, partial curve].

In the case of `CCCCOC(=O)NS(=O)(=O)c1sc(CC(C)C)cc1-c1ccc(Cn2ccnc2)cc1`, the AC50 is 13.8 µM [falling, partial curve, poor fit].

On to `Nc1nc(N)nc(-c2cc(Cl)ccc2Cl)n1`, for which the AC50 is 9.77 µM [rising, partial curve, poor fit].

As for `Cn1cc(/C=C/C(=O)c2cccc(F)c2)cc1/C=C/C(=O)NO`, the AC50 was 27.5 µM [falling, partial curve, poor fit].

With `CC(C)(C#N)c1cc(Cn2cncn2)cc(C(C)(C)C#N)c1`, the AC50 was 0.219 µM [rising, full curve, poor fit].

As to `CC[C@H](NC(=O)[C@H](CS(=O)(=O)CC1CC1)N[C@@H](c1ccc(F)cc1)C(F)(F)F)C(=O)C(=O)NC1CC1`, the AC50 was 12.3 µM [rising, partial curve, poor fit].

As to `C[C@@H]1CC(=O)Nc2cccc(-c3ccc4c(c3)c(-c3cnn(C)c3)nn4C)c2N1`, the AC50 was 7.76 µM [falling, partial curve].

Regarding `NCCOc1cc(C(=O)Nc2cc(OCCN)c3ccccc3n2)nc(C(=O)Nc2cc(OCCN)c3ccccc3n2)c1`, the AC50 is 6.16 µM [falling, partial curve].

For `Cn1ncc(NC(=O)c2nc(-c3c(F)cccc3F)sc2N)c1N1CC[C@@H](N)[C@H](F)CC1`, the AC50 was 19.5 µM [falling, single point].

For `COc1ccc(CC2=NN3C([C@@H](CCc4ccccc4)[C@@H](C)O)=NC(C)C3C(=O)N2)cc1OC` (stereo not given in full), the AC50 is 17.4 µM [falling, partial curve, poor fit].

Regarding `Cn1cc(-c2cnc3ccc4ccc(CS(=O)(=O)NCc5ccccn5)cc4c(=O)c3c2)cn1`, the AC50 is 19.5 µM [falling, single point].

On to `C[C@]12CC[C@@H]3c4ccc(O)cc4C[C@@H](CCCCCCCCCS(=O)CCCC(F)(F)C(F)(F)F)[C@H]3[C@H]1CC[C@H]2O` (stereo not given in full), for which the AC50 was 1.95 µM [falling, full curve, poor fit].

Turning to `Cc1nc2c([nH]1)CCN(C(=O)c1ccc(NC(=O)c3ccccc3-c3ccccc3)cc1)c1ccccc1-2`, the AC50 is 19.5 µM [falling, single point].

As to `CC1(C(=O)O)CCC2(C)CCC3(C)C(=CC(=O)C4C5(C)CCC(OC6OC(C(=O)O)C(O)C(O)C6OC6OC(C(=O)O)C(O)C(O)C6O)C(C)(C)C5CCC43C)C2C1` (stereo not given), the AC50 is 0.0389 µM [rising, full curve, poor fit].

On to `Cn1cc(-c2ccc(-c3cncc(Cl)c3N3CCC4(CCNC4=O)CC3)cc2)cn1`, for which the AC50 was 0.219 µM [falling, full curve].

As for `CCn1c(=O)c(-c2ccc(-c3cncs3)cc2Cl)cc2cnc(Nc3ccc(N4CCN(C)CC4)cc3)nc21`, the AC50 was 19.5 µM [falling, single point].
